Experimental data: PubChem BioAssay AID212 (DTP/NCI, 2004)
Results filed as inconclusive are left out. Not every entry of the source has a single result; some have several. Only these are listed. There may be further records. Results that share an entry repeat one measurement in other runs, samples, wells, individuals or studies. A tag in brackets gives the origin of a value. A, B and so on number the origins entry by entry.

Test system: BDF1 mice, colon carcinoma 38 sc, T/C %
Experiment: NCI In Vivo Anticancer Drug Screen. Data for tumor model Colon Carcinoma 38 (subcutaneous) in B6D2F1 (BDF1) mice
Details: endpoint: median tumor weight (est.), higher = larger tumour
Outline: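 Transplantable tumor in mice; compound-treated vs vehicle-dosed controls. Measured survival or tumor size; value = T ÷ C.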

[1] = dose: 50.0 mg/kg/injection, schedule: Q07DX002 (ip), vehicle: saline with Tween-80
[2] = dose: 200.0 mg/kg/injection, schedule: Q07DX002 (ip), vehicle: saline with Tween-80
[3] = dose: 25.0 mg/kg/injection, schedule: Q07DX002 (ip), vehicle: Klucel (hydroxypropylcellulose) (HPC)
[4] = dose: 100.0 mg/kg/injection, schedule: Q07DX002 (ip), vehicle: Klucel (hydroxypropylcellulose) (HPC)
[5] = dose: 200.0 mg/kg/injection, schedule: Q07DX002 (ip), vehicle: Klucel (hydroxypropylcellulose) (HPC)
[6] = dose: 25.0 mg/kg/injection, schedule: Q07DX002 (ip), vehicle: saline with Tween-80
[7] = dose: 800.0 mg/kg/injection, schedule: Q07DX002 (ip), vehicle: saline
[8] = dose: 100.0 mg/kg/injection, schedule: Q07DX002 (ip), vehicle: saline with Tween-80
[9] = dose: 50.0 mg/kg/injection, schedule: Q07DX002 (ip), vehicle: Klucel (hydroxypropylcellulose) (HPC)

## O=C1NC(=O)/C(=C/C=C/c2ccccc2)S1
[1]
  T/C: 78 % of control and 106 % of control
[2]
  T/C: 102 % of control and 195 % of control
dose: 400.0 mg/kg/injection, schedule: Q07DX002 (ip), vehicle: saline with Tween-80
  T/C: 59 % of control and 192 % of control

## NNC(=O)c1ccncc1
dose: 18.5 mg/kg/injection, schedule: Q07DX002 (ip), vehicle: saline
  T/C: 52 % of control and 118 % of control

## Cc1cc(C)c(-c2cc(O)c(C)cc2O)c(C)c1
[3]
  T/C: 43 % of control and 106 % of control
[4]
  T/C: 93 % of control and 174 % of control
[5]
  T/C: 122 % of control and 180 % of control
dose: 400.0 mg/kg/injection, schedule: Q07DX002 (ip), vehicle: Klucel (hydroxypropylcellulose) (HPC)
  T/C: 91 % of control and 159 % of control

## CCCCCCCCCCCCCCCCCC(=O)Nc1ccn(C2OC(CO)C(O)C2O)c(=O)n1 (centres undefined)
[6]
  T/C: 61 % of control and 102 % of control

## Oc1cc2c3c(c1)c1cc4c(cc1c[n+]3CC2)OCO4
dose: 12.5 mg/kg/injection, schedule: Q07DX002 (ip), vehicle: water
  T/C: 108 % of control and 151 % of control
dose: 100.0 mg/kg/injection, schedule: Q07DX002 (ip), vehicle: water
  T/C: 52 % of control and 85 % of control

## CC(=O)Oc1c(C)[nH]ccc1=O
dose: 25.0 mg/kg/injection, schedule: Q07DX002 (ip), vehicle: saline
  T/C: 55 % of control and 116 % of control
dose: 50.0 mg/kg/injection, schedule: Q07DX002 (ip), vehicle: saline
  T/C: 56 % of control, 69 % of control, 88 % of control
dose: 100.0 mg/kg/injection, schedule: Q07DX002 (ip), vehicle: saline
  T/C: 78 % of control and 164 % of control
dose: 400.0 mg/kg/injection, schedule: Q07DX002 (ip), vehicle: saline
  T/C: 85 % of control and 170 % of control
[7]
  T/C: 55 % of control and 169 % of control

## O=C1C(NCC(O)CO)=C(N2CC2)C(=O)C(NCC(O)CO)=C1N1CC1 (centres undefined)
dose: 1.0 mg/kg/injection, schedule: Q07DX002 (ip), vehicle: saline
  T/C: 105 % of control and 158 % of control

## O=NN(CCCl)C(=O)NC1[C@H](O)CCC[C@@H]1O (some centres undefined)
dose: 5.0 mg/kg/injection, schedule: Q07DX002 (ip), vehicle: saline
  T/C: 28 % of control, 43 % of control, 57 % of control

## Nc1ncnc2c1ncn2C1C=C(CO)C(O)C1O (centres undefined)
dose: 4.0 mg/kg/injection, schedule: Q07DX002 (ip), vehicle: saline
  T/C: 78 % of control and 108 % of control

## O=C(Nc1ccc(N=C=S)cc1Cl)c1cc(Cl)cc(Cl)c1O
[3]
  T/C: 87 % of control and 155 % of control

## O=C(O)C1CC(c2ccccc2)=NN1c1ccccc1 (centres undefined)
dose: 50.0 mg/kg/injection, schedule: Q07DX002 (ip), vehicle: water
  T/C: 96 % of control and 177 % of control

## COc1cccc2c1C(=O)c1c(O)c3c(c(O)c1C2=O)C[C@@](O)(C(C)=O)C[C@@H]3OC1CC(N(C)C)C(O)C(C)O1 (some centres undefined)
dose: 18.0 mg/kg/injection, schedule: Q07DX002 (ip), vehicle: saline
  T/C: 23 % of control, 32 % of control, 52 % of control

## CCC[P+](c1ccccc1)(c1ccccc1)c1ccccc1
dose: 12.5 mg/kg/injection, schedule: Q07DX003 (ip), vehicle: saline with Tween-80
  T/C: 83 % of control and 119 % of control

## c1ccc2c(NCCCCCCNc3c4ccccc4nc4ccccc34)c3ccccc3nc2c1
dose: 10.0 mg/kg/injection, schedule: Q07DX002 (ip), vehicle: Klucel (hydroxypropylcellulose) (HPC)
  T/C: 88 % of control and 114 % of control

## C=CC(C)(C)n1cc(C2=C(O)C(=O)C(c3cn(C(C)(C)C=C)c4ccccc34)=C(O)C2=O)c2ccccc21
dose: 20.0 mg/kg/injection, schedule: Q07DX002 (ip), vehicle: Klucel (hydroxypropylcellulose) (HPC)
  T/C: 58 % of control and 112 % of control
dose: 40.0 mg/kg/injection, schedule: Q07DX002 (ip), vehicle: Klucel (hydroxypropylcellulose) (HPC)
  T/C: 77 % of control and 103 % of control

## CNC(=O)OCc1c(COC(=O)NC)c(-c2ccccc2)n(C)c1-c1ccccc1
dose: 6.25 mg/kg/injection, schedule: Q07DX002 (ip), vehicle: distilled water + Tween-80
  T/C: 59 % of control and 195 % of control
dose: 12.5 mg/kg/injection, schedule: Q07DX002 (ip), vehicle: distilled water + Tween-80
  T/C: 87 % of control, 93 % of control, 118 % of control
dose: 25.0 mg/kg/injection, schedule: Q07DX002 (ip), vehicle: distilled water + Tween-80
  T/C: 45 % of control, 64 % of control, 87 % of control
dose: 50.0 mg/kg/injection, schedule: Q07DX002 (ip), vehicle: distilled water + Tween-80
  T/C: 40 % of control, 104 % of control, 122 % of control

## [O-][n+]1c(CN2CCCCC2)nc2cccc3c2c1-c1ccccc1-3
[6]
  T/C: 51 % of control and 166 % of control
[8]
  T/C: 42 % of control and 95 % of control

## Cc1cn(C2CC(O)C(CO)O2)c(=O)[nH]c1=O (centres undefined)
dose: 12.5 mg/kg/injection, schedule: Q07DX003 (ip), vehicle: saline
  T/C: 20 % of control and 85 % of control
dose: 100.0 mg/kg/injection, schedule: Q07DX003 (ip), vehicle: saline
  T/C: 115 % of control and 150 % of control

## COc1cccc2c1C(=O)c1c(O)c3c(c(O)c1C2=O)C[C@@](O)(C(=O)CO)C[C@@H]3OC1CC(N)C(O)C(C)O1 (some centres undefined)
dose: 0.25 mg/kg/injection, schedule: Q07DX002 (ip), vehicle: saline
  T/C: 85 % of control and 123 % of control
dose: 1.5 mg/kg/injection, schedule: Q07DX003 (iv), vehicle: saline
  T/C: 91 % of control and 151 % of control
dose: 6.0 mg/kg/injection, schedule: Q07DX002 (ip), vehicle: saline
  T/C: 33 % of control [sample A] and 97 % of control [sample B]
dose: 6.0 mg/kg/injection, schedule: Q07DX003 (iv), vehicle: saline
  T/C: 15 % of control and 62 % of control

## CN(C)N=Nc1cccc(C(N)=O)c1
dose: 80.0 mg/kg/injection, schedule: Q07DX002 (ip), vehicle: saline
  T/C: 38 % of control and 79 % of control

## Cc1cnc(/C=N\NC(N)=S)c2cccc(N)c12
[6]
  T/C: 52 % of control and 97 % of control

## COc1cc2cc3c4cc(OC)c(OC)cc4cc[n+]3c(C)c2cc1OC (tested in a mixture with another compound)
dose: 200.0 mg/kg/injection, schedule: Q07DX003 (ip), vehicle: saline
  T/C: 41 % of control and 74 % of control

## c1cnc2ncncc2n1
[6]
  T/C: 57 % of control and 119 % of control
[1]
  T/C: 80 % of control and 109 % of control

## CC1C=NNC1=O (centres undefined)
[3]
  T/C: 82 % of control and 171 % of control
dose: 800.0 mg/kg/injection, schedule: Q07DX002 (ip), vehicle: Klucel (hydroxypropylcellulose) (HPC)
  T/C: 47 % of control and 77 % of control

## Cc1cc(N2C(=O)CCSC2=S)ccc1Cl
dose: 12.5 mg/kg/injection, schedule: Q07DX002 (ip), vehicle: Klucel (hydroxypropylcellulose) (HPC)
  T/C: 83 % of control and 177 % of control
[3]
  T/C: 70 % of control and 107 % of control
[9]
  T/C: 84 % of control, 91 % of control, 197 % of control
[4]
  T/C: 33 % of control and 195 % of control
[5]
  T/C: 43 % of control, 107 % of control, 239 % of control

## CCC1OCC(C(Cl)CCl)O1 (centres undefined)
[9]
  T/C: 104 % of control and 151 % of control

## OCCCN1CCCCC1CO (centres undefined)
[7]
  T/C: 86 % of control and 199 % of control

## CN(C)C(=O)c1cccc(COc2ccc(N3C(N)=NC(N)=NC3(C)C)cc2Cl)c1
dose: 8.0 mg/kg/injection, schedule: Q07DX003 (ip), vehicle: saline
  T/C: 83 % of control and 152 % of control
dose: 16.0 mg/kg/injection, schedule: Q07DX003 (ip), vehicle: saline
  T/C: 54 % of control and 162 % of control

## C=C(OC1C(C)=C2C(C1OC(=O)CCCCCCC)C(C)(OC(C)=O)CC(OC(=O)CCC)C1(O)C2OC(=O)C1(C)O)/C(C)=C/C (centres undefined)
dose: 0.22 mg/kg/injection, schedule: Q07DX002 (ip), vehicle: Klucel (hydroxypropylcellulose) (HPC)
  T/C: 110 % of control and 156 % of control
dose: 0.42 mg/kg/injection, schedule: Q07DX002 (ip), vehicle: Klucel (hydroxypropylcellulose) (HPC)
  T/C: 11 % of control, 86 % of control, 102 % of control
dose: 3.37 mg/kg/injection, schedule: Q07DX002 (ip), vehicle: Klucel (hydroxypropylcellulose) (HPC)
  T/C: 56 % of control and 176 % of control

## Clc1cc(Cl)c(C[N+]23CN4CN(CN(C4)C2)C3)cc1Cl
[8]
  T/C: 56 % of control and 121 % of control
[2]
  T/C: 70 % of control and 106 % of control
